The target in experiment [1] is GFP‐tagged endogenous ATG2A (CRISPR/Cas9 knock‐in) (human (endogenous in U2OS)) (UniProt Q2TAZ0). Nature of the experiment: co-IP; U2OS WT or GFP-ATG2A knock-in cells in complete medium or starved 2 h; lysates on anti-GFP nanobody agarose; blots for endogenous WIPI4, LC3B, GABARAP (pan).
Experiment [2] has as its target HA‐tagged ATG2A‐WT (human) (UniProt Q2TAZ0). The experiment is described as follows: co-IP; U2OS ATG2A/B DKO cells stably expressing HA-ATG2A WT, mLIR or mYFS, transfected with GFP-GABARAP, complete medium or starved 2 h (EBSS); anti-HA beads; blots for WIPI4 and GFP.
Experiment [3] has as its target HA‐tagged ATG2A‐mYFS (YFS/AAA) (human) (UniProt Q2TAZ0). The experiment is described as above.
The target of experiment [4] is HA‐tagged ATG2A‐mLIR (FCIL/AAAA) (human) (UniProt Q2TAZ0). The description is as above.
Experiment [5] addresses ATG2A, endogenous in HEK293T cells (human (endogenous in HEK293T)) (UniProt Q2TAZ0). Nature of the experiment: co-IP; GFP alone, GFP-GABARAP or GFP-GABARAP with increasing concentrations of mCherry-WIPI4 expressed in HEK293T for 24 h; GFP-TRAP beads; blots for endogenous ATG2A and ATG2B.
Experiment [6] concerns the target ATG2B, endogenous in HEK293T cells (human (endogenous in HEK293T)) (UniProt Q96BY7). The description is as above.
In experiment [7] the target is T1, HA‐tagged ATG2A‐WT (human), Q2TAZ0.
T1 chain: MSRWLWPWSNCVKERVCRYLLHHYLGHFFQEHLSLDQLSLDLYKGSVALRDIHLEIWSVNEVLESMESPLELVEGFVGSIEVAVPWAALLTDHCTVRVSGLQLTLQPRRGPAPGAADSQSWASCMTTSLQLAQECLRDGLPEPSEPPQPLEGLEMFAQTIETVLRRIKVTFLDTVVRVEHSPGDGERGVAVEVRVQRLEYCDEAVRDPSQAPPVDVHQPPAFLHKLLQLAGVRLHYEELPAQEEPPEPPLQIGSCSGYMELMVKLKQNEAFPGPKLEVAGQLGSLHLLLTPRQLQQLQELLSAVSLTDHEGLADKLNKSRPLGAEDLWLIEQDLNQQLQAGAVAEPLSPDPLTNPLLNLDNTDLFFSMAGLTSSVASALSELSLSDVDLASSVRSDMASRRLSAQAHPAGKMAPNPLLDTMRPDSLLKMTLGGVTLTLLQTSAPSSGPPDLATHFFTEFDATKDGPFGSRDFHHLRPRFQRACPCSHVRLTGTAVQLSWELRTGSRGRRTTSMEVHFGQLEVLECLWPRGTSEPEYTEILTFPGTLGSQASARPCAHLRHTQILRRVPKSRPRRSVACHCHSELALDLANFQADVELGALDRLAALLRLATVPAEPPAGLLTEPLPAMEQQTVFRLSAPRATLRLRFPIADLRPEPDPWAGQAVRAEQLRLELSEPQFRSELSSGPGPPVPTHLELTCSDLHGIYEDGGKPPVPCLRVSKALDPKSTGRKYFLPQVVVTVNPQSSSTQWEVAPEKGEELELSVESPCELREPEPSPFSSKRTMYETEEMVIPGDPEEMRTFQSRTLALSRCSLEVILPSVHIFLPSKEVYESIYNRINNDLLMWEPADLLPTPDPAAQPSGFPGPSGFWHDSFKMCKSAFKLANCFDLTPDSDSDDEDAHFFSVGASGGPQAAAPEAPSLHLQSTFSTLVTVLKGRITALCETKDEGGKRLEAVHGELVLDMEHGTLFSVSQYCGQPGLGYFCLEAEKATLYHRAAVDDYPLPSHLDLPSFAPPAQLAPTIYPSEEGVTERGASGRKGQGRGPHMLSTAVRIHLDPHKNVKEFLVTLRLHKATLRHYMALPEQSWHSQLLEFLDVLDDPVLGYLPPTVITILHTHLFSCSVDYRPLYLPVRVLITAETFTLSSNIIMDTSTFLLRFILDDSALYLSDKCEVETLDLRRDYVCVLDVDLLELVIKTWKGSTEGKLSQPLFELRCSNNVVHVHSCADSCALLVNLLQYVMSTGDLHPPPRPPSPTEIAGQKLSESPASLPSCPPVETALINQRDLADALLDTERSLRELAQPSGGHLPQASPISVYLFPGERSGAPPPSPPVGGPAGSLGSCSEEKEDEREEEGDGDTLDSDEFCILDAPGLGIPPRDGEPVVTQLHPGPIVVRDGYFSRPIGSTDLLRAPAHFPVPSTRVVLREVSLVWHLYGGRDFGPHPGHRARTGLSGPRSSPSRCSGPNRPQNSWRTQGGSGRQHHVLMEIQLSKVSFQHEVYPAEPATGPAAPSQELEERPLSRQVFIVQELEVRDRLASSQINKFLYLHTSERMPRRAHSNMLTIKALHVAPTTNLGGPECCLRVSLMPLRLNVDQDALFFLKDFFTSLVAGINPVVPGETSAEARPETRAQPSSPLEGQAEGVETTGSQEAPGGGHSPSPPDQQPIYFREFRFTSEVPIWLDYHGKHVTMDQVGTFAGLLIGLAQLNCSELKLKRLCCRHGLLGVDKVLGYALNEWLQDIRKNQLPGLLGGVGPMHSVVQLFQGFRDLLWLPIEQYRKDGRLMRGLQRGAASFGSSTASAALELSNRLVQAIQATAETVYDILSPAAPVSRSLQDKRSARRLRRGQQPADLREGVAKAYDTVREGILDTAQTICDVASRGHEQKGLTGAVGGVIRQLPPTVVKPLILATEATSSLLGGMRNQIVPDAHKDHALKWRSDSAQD
The experiment is described as follows: co-IP; U2OS ATG2A/B DKO cells stably expressing HA-ATG2A WT, mLIR or mYFS, transfected with GFP-GABARAP, complete medium or starved 2 h (EBSS); anti-HA beads; blots for WIPI4 and GFP. The conditions noted are these: remark: other sources report otherwise.

Chains of the proteins cited; added tags and fusions are not shown.
UniProt Q96BY7: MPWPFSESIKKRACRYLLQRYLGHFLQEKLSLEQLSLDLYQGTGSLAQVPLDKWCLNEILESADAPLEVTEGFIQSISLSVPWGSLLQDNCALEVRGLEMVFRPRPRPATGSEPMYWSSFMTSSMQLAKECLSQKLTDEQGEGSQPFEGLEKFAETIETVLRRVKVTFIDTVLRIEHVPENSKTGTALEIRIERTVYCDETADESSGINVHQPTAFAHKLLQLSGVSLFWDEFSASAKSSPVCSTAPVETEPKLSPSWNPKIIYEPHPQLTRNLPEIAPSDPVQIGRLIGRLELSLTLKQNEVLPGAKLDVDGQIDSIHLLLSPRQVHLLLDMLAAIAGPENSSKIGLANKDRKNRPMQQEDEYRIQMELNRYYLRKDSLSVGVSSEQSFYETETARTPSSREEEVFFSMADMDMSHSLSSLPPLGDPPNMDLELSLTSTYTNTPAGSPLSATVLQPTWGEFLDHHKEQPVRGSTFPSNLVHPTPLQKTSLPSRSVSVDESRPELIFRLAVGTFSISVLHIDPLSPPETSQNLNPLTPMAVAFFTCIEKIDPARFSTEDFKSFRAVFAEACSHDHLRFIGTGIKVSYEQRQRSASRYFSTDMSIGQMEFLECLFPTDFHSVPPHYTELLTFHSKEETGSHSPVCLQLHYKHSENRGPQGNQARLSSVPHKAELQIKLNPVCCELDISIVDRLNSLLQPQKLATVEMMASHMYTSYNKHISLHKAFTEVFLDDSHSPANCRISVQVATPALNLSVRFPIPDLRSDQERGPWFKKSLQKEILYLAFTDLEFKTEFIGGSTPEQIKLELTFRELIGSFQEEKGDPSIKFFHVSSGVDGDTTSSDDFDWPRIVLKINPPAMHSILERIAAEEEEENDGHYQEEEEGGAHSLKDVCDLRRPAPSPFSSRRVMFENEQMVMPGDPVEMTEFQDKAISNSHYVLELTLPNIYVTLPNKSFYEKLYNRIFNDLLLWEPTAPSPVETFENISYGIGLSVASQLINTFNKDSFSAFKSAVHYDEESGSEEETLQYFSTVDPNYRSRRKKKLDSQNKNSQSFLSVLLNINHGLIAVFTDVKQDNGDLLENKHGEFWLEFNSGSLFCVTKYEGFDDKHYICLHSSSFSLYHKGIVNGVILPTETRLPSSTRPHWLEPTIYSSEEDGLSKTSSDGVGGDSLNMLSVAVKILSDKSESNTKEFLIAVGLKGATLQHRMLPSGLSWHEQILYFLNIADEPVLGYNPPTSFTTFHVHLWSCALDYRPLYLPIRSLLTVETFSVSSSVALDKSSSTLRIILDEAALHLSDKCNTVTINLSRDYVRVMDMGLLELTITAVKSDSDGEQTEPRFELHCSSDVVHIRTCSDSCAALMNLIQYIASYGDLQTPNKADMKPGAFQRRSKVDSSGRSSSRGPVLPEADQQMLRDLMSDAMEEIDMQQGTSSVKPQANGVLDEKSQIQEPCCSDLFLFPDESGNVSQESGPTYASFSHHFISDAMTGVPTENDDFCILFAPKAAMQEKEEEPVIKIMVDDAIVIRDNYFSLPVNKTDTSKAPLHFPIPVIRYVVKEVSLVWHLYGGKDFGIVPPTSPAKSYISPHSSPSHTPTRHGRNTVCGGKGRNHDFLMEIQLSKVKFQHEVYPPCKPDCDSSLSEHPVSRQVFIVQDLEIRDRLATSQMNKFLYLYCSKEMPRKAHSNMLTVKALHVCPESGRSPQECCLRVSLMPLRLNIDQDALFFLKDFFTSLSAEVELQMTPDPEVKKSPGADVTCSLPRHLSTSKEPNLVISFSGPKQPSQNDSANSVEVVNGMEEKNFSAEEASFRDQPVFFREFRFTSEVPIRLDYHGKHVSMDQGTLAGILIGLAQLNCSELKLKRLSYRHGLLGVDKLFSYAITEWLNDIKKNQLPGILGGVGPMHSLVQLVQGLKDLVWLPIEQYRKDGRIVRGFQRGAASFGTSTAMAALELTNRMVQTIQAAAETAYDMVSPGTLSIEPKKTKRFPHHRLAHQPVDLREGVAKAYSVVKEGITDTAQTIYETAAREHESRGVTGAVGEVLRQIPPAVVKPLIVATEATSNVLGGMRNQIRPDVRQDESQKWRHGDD

These are yes or no findings as the source states them, for the method shown. Binding seen in cells or lysates may run through a third protein. Some entries that bind do so weakly or less than the wild type. For some of these results: Sequences can lack the tags named with a protein.

B1: WIPI4 (WDR45), endogenous in U2OS cells (protein, UniProt Q9Y484 1-360)
chain: MTQQPLRGVTSLRFNQDQSCFCCAMETGVRIYNVEPLMEKGHLDHEQVGSMGLVEMLHRSNLLALVGGGSSPKFSEISVLIWDDAREGKDSKEKLVLEFTFTKPVLSVRMRHDKIVIVLKNRIYVYSFPDNPRKLFEFDTRDNPKGLCDLCPSLEKQLLVFPGHKCGSLQLVDLASTKPGTSSAPFTINAHQSDIACVSLNQPGTVVASASQKGTLIRLFDTQSKEKLVELRRGTDPATLYCINFSHDSSFLCASSDKGTVHIFALKDTRLNRRSALARVGKVGPMIGQYVDSQWSLASFTVPAESACICAFGRNTSKNVNSVIAICVDGTFHKYVFTPDGNCNREAFDVYLDICDDDDF
On to B1, for which the binding entry is on record as “binds” in experiment [1], “binds” in experiment [2], “no binding” in experiment [3] and “binds” in experiment [4].

B2: mCherry‐tagged WIPI4 (WDR45) (protein, UniProt Q9Y484 1-360)
chain: MTQQPLRGVTSLRFNQDQSCFCCAMETGVRIYNVEPLMEKGHLDHEQVGSMGLVEMLHRSNLLALVGGGSSPKFSEISVLIWDDAREGKDSKEKLVLEFTFTKPVLSVRMRHDKIVIVLKNRIYVYSFPDNPRKLFEFDTRDNPKGLCDLCPSLEKQLLVFPGHKCGSLQLVDLASTKPGTSSAPFTINAHQSDIACVSLNQPGTVVASASQKGTLIRLFDTQSKEKLVELRRGTDPATLYCINFSHDSSFLCASSDKGTVHIFALKDTRLNRRSALARVGKVGPMIGQYVDSQWSLASFTVPAESACICAFGRNTSKNVNSVIAICVDGTFHKYVFTPDGNCNREAFDVYLDICDDDDF
Turning to B2, the binding entry in experiment [5] and in experiment [6] was “binds” each time.

B3: GFP‐tagged GABARAP (in U2OS ATG2A/B double‐knockout cells), O95166 1-117 (protein)
chain: MKFVYKEEHPFEKRRSEGEKIRKKYPDRVPVIVEKAPKARIGDLDKKKYLVPSDLTVGQFYFLIRKRIHLRAEDALFFFVNNVIPPTSATMGQLYQEHHEEDFFLYIAYSDESVYGL
Regarding B3, in experiment [7], the binding entry was “binds”.
